The record followed here is the supplement of paper PMC10369915.

The other results are listed elsewhere or left out. Cut-off read from the data, not from the text of the source: active = 3.2 or more and inactive = the rest. Only a few entries rise above the background.

Among the targets are SHP2 C-SH2 domain E139D; SHP2 N-SH2 domain L43F; SHP2 N-SH2 domain T42A; SHP2 N-SH2 domain T52S.
What all share (test): enrichment score (SH2-bound / input frequency) (ratio); bacterial display of known human phosphotyrosine sites (pTyr-Var adds point mutants) read by sequencing; higher = stronger binding; tyrosines were phosphorylated by kinases first
Details in all cases: peptide library: pTyr-Var

For experiment [1], the target named is SHP2 C-SH2 domain wild-type.
In experiment [2] the target is SHP2 N-SH2 domain wild-type.
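Note: displayed peptides selected on beads carrying the immobilized SH2 domain, with library peptides lacking any tyrosine serving as negative controls.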

Consider KLLPEYPGVLS [DHFR2_Y163], for which the enrichment score with SHP2 C-SH2 domain E139D is inactive: 1.69; in experiment [1], inactive: 1.2; in the experiment with SHP2 N-SH2 domain L43F, inactive: 1.24; with SHP2 N-SH2 domain T42A, inactive: 1.03; in the experiment with SHP2 N-SH2 domain T52S, inactive: 1.22; in experiment [2], inactive: 1.29.

Consider RLPNGYGLAFR [DLK1_Y262_S260N_YF], for which the enrichment score with SHP2 C-SH2 domain E139D was inactive: 0.938; in experiment [1], inactive: 0.767; with SHP2 N-SH2 domain L43F, inactive: 0.82; with SHP2 N-SH2 domain T42A, inactive: 0.877; with SHP2 N-SH2 domain T52S, inactive: 0.863; in experiment [2] it was inactive: 0.839.

On to TSIGNYFKPWF [DHCR24_Y299_N294T_YF], for which the enrichment score with SHP2 C-SH2 domain E139D is inactive: 2.56; in experiment [1], active: 3.67; with SHP2 N-SH2 domain L43F it was active: 12.6; in the experiment with SHP2 N-SH2 domain T42A, active: 13.5; in the experiment with SHP2 N-SH2 domain T52S, active: 14; in experiment [2] it was active: 5.26.

As for DAAEDYAEGVC [DHODH_Y194_R199C], the enrichment score in the experiment with SHP2 C-SH2 domain E139D is inactive: 0.554; in experiment [1], inactive: 0.669; with SHP2 N-SH2 domain L43F it was inactive: 0.472; with SHP2 N-SH2 domain T42A, inactive: 0.528; in the experiment with SHP2 N-SH2 domain T52S, inactive: 0.492; in experiment [2] it was inactive: 0.678.

With RPDSPYSRLHD [DOK2_Y271_P274L], the enrichment score is inactive: 0.754 in the experiment with SHP2 C-SH2 domain E139D; inactive: 0.884 in experiment [1]; inactive: 0.71 with SHP2 N-SH2 domain L43F; inactive: 0.496 in the experiment with SHP2 N-SH2 domain T42A; inactive: 0.516 with SHP2 N-SH2 domain T52S; inactive: 0.506 in experiment [2].

Take RLPSGYGLAFR [DLK1_Y262_YF]: the enrichment score with SHP2 C-SH2 domain E139D was inactive: 0.812; in experiment [1] it was inactive: 0.849; with SHP2 N-SH2 domain L43F, inactive: 0.784; with SHP2 N-SH2 domain T42A, inactive: 0.731; in the experiment with SHP2 N-SH2 domain T52S, inactive: 0.707; in experiment [2], inactive: 0.854.

Turning to VIEYSYTSADG [DHCR7_Y382_C380Y], the enrichment score was inactive: 1.06 with SHP2 C-SH2 domain E139D; inactive: 2.05 in experiment [1]; inactive: 0.979 with SHP2 N-SH2 domain L43F; inactive: 2.07 with SHP2 N-SH2 domain T42A; inactive: 0.776 with SHP2 N-SH2 domain T52S; inactive: 0.872 in experiment [2].

Take KIVATYRLCSE [DNAH3_Y1586]: the enrichment score in the experiment with SHP2 C-SH2 domain E139D is inactive: 0.647; in experiment [1], inactive: 0.729; with SHP2 N-SH2 domain L43F, inactive: 0.623; with SHP2 N-SH2 domain T42A it was inactive: 0.535; with SHP2 N-SH2 domain T52S, inactive: 0.527; in experiment [2], inactive: 0.6.

On to EIVYVYVKKRS [DNAI2_Y7], for which the enrichment score in the experiment with SHP2 C-SH2 domain E139D was inactive: 0.419; in experiment [1], inactive: 0.689; with SHP2 N-SH2 domain L43F it was inactive: 0.493; in the experiment with SHP2 N-SH2 domain T42A, inactive: 0.519; with SHP2 N-SH2 domain T52S, inactive: 0.553; in experiment [2] it was inactive: 0.65.

In the case of GMKIVYVYVKK [DNAI2_Y5_E2K], the enrichment score in the experiment with SHP2 C-SH2 domain E139D is inactive: 1.71; in experiment [1] it was inactive: 2.22; in the experiment with SHP2 N-SH2 domain L43F, inactive: 2.31; with SHP2 N-SH2 domain T42A, inactive: 1.72; with SHP2 N-SH2 domain T52S, inactive: 1.47; in experiment [2], inactive: 1.36.

As for GMKIVYVFVKK [DNAI2_Y5_E2K_YF], the enrichment score in the experiment with SHP2 C-SH2 domain E139D is inactive: 1.7; in experiment [1], inactive: 1.83; with SHP2 N-SH2 domain L43F, inactive: 1.43; in the experiment with SHP2 N-SH2 domain T42A, inactive: 1.7; with SHP2 N-SH2 domain T52S it was inactive: 1.66; in experiment [2], inactive: 1.82.

EIVFVYVKKRS [DNAI2_Y7_YF]: the enrichment score with SHP2 C-SH2 domain E139D was inactive: 0.746; in experiment [1] it was inactive: 0.761; with SHP2 N-SH2 domain L43F, inactive: 0.763; in the experiment with SHP2 N-SH2 domain T42A it was inactive: 0.67; with SHP2 N-SH2 domain T52S it was inactive: 0.756; in experiment [2], inactive: 0.803.

GFPVHYTDMSN [DNMT3B_Y815_V818M]: the enrichment score in the experiment with SHP2 C-SH2 domain E139D was inactive: 0.994; in experiment [1], inactive: 1.79; with SHP2 N-SH2 domain L43F it was inactive: 0.94; with SHP2 N-SH2 domain T42A, active: 3.78; in the experiment with SHP2 N-SH2 domain T52S it was inactive: 0.868; in experiment [2] it was inactive: 0.81.

With KLLPEYPGILS [DHFR2_Y163_V166I], the enrichment score was inactive: 1.1 with SHP2 C-SH2 domain E139D; inactive: 1.12 in experiment [1]; inactive: 1.28 with SHP2 N-SH2 domain L43F; inactive: 1.37 with SHP2 N-SH2 domain T42A; inactive: 1.48 with SHP2 N-SH2 domain T52S; inactive: 1.43 in experiment [2].

For the molecule GIVTGYLVLKE [DNMT3B_Y588_A585V], the enrichment score was inactive: 1.39 with SHP2 C-SH2 domain E139D; inactive: 1.29 in experiment [1]; inactive: 1.32 in the experiment with SHP2 N-SH2 domain L43F; inactive: 1.89 with SHP2 N-SH2 domain T42A; inactive: 1.47 with SHP2 N-SH2 domain T52S; inactive: 1.59 in experiment [2].

As to IDLEKYKLLPE [DHFR_Y157], the enrichment score with SHP2 C-SH2 domain E139D was inactive: 1.27; in experiment [1], inactive: 1.4; with SHP2 N-SH2 domain L43F it was inactive: 1.2; with SHP2 N-SH2 domain T42A it was inactive: 0.915; with SHP2 N-SH2 domain T52S, inactive: 1.14; in experiment [2] it was inactive: 1.14.

Consider CDTKLYTSAPN [DNTTIP2_Y427], for which the enrichment score with SHP2 C-SH2 domain E139D is inactive: 0.631; in experiment [1], inactive: 0.766; with SHP2 N-SH2 domain L43F it was inactive: 0.698; in the experiment with SHP2 N-SH2 domain T42A, inactive: 0.649; with SHP2 N-SH2 domain T52S, inactive: 0.648; in experiment [2], inactive: 0.665.

Take GFPVHYTDVSN [DNMT3B_Y815]: the enrichment score was inactive: 1.01 with SHP2 C-SH2 domain E139D; inactive: 2.04 in experiment [1]; inactive: 2.12 with SHP2 N-SH2 domain L43F; active: 6.65 with SHP2 N-SH2 domain T42A; inactive: 2.42 with SHP2 N-SH2 domain T52S; inactive: 1.13 in experiment [2].

Turning to HELYVYKSDEN [DOCK3_Y548_C550S], the enrichment score with SHP2 C-SH2 domain E139D was inactive: 0.881; in experiment [1] it was inactive: 1; in the experiment with SHP2 N-SH2 domain L43F, inactive: 0.781; with SHP2 N-SH2 domain T42A it was inactive: 0.881; with SHP2 N-SH2 domain T52S, inactive: 0.89; in experiment [2], inactive: 0.928.
